# From the supplement of paper PMC8728848
# Some of the results follow.
# Columns and labels:
# Assay in all cases: glycan array binding signal (z-score within array); higher = stronger binding
# Conditions in all cases: glycan notation: IUPAC condensed, linker removed
# [1] = molecular target: Neu5Ac(a2-3)Gal(b1-4)GlcNAc(b1-2)[Neu5Ac(a2-3)Gal(b1-4)GlcNAc(b1-4)]Man(a1-3)[GlcNAc(b1-4)][Neu5Ac(a2-3)Gal(b1-4)GlcNAc(b1-4)Man(a1-6)]Man(b1-4)GlcNAc(b1-4)GlcNAc
# Outline: (§1)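 Arrays were curated from the Consortium for Functional Glycomics database, 3228 in total, and kept only where the protein sequence was available. Binding is expressed as a within-array Z-score. This score was averaged across arrays of the same protein sequence at different concentrations or buffers and across linkers, and negative values can be read as non-binding.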
# [2] = molecular target: Neu5Ac(a2-3)Gal(b1-4)GlcNAc(b1-2)[Neu5Ac(a2-3)Gal(b1-4)GlcNAc(b1-6)]Man(a1-6)[Neu5Ac(a2-3)Gal(b1-4)GlcNAc(b1-2)Man(a1-3)]Man(b1-4)GlcNAc(b1-4)GlcNAc
# Outline: as §1
# [3] = molecular target: Neu5Ac(a2-3)Gal(b1-4)GlcNAc(b1-2)[Neu5Ac(a2-3)Gal(b1-4)GlcNAc(b1-6)]Man(a1-6)[Neu5Ac(a2-3)Gal(b1-4)GlcNAc(b1-2)Man(a1-3)][GlcNAc(b1-4)]Man(b1-4)GlcNAc(b1-4)GlcNAc
# Outline: as §1
# [4] = molecular target: Neu5Ac(a2-3)Gal(b1-4)GlcNAc(b1-3)Gal
# Outline: as §1
# [5] = molecular target: Neu5Ac(a2-3)Gal(b1-4)GlcNAc(b1-3)Gal(b1-3)GlcNAc
# Outline: as §1
# [6] = molecular target: Neu5Ac(a2-3)Gal(b1-4)GlcNAc(b1-3)Gal(b1-4)GlcNAc
# Outline: as §1
# [7] = molecular target: Neu5Ac(a2-3)Gal(b1-4)GlcNAc(b1-3)Gal(b1-4)GlcNAc(b1-2)Man(a1-3)[Neu5Ac(a2-3)Gal(b1-4)GlcNAc(b1-3)Gal(b1-4)GlcNAc(b1-2)Man(a1-6)]Man(b1-4)GlcNAc(b1-4)GlcNAc
# Outline: as §1
# [8] = molecular target: Neu5Ac(a2-3)Gal(b1-4)GlcNAc(b1-3)Gal(b1-4)GlcNAc(b1-3)Gal(b1-4)GlcNAc
# Outline: as §1
# [9] = molecular target: Neu5Ac(a2-3)Gal(b1-4)GlcNAc(b1-3)Gal(b1-4)GlcNAc(b1-3)Gal(b1-4)GlcNAc(b1-2)Man(a1-3)[Neu5Ac(a2-3)Gal(b1-4)GlcNAc(b1-3)Gal(b1-4)GlcNAc(b1-3)Gal(b1-4)GlcNAc(b1-2)Man(a1-6)]GalNAc
# Outline: as §1
# [10] = molecular target: Neu5Ac(a2-3)Gal(b1-4)GlcNAc(b1-3)Gal(b1-4)GlcNAc(b1-3)GalNAc
# Outline: as §1
# [11] = molecular target: Neu5Ac(a2-3)Gal(b1-4)GlcNAc(b1-3)Gal(b1-4)GlcNAc(b1-3)[Neu5Ac(a2-3)Gal(b1-4)GlcNAc(b1-3)Gal(b1-4)GlcNAc(b1-6)]GalNAc
# Outline: as §1
# [12] = molecular target: Neu5Ac(a2-3)Gal(b1-4)GlcNAc(b1-3)Gal(b1-4)GlcNAc(b1-6)[Gal(b1-3)]GalNAc
# Outline: as §1
# [13] = molecular target: Neu5Ac(a2-3)Gal(b1-4)GlcNAc(b1-3)Gal(b1-4)[Fuc(a1-3)]GlcNAc
# Outline: as §1
# [14] = molecular target: Neu5Ac(a2-3)Gal(b1-4)GlcNAc(b1-3)GalNAc
# Outline: as §1
# [15] = molecular target: Neu5Ac(a2-3)Gal(b1-4)GlcNAc(b1-3)[Neu5Ac(a2-3)Gal(b1-4)GlcNAc(b1-6)]GalNAc
# Outline: as §1
# [16] = molecular target: Neu5Ac(a2-3)Gal(b1-4)GlcNAc(b1-6)GalNAc
# Outline: as §1
# [17] = molecular target: Neu5Ac(a2-3)Gal(b1-4)GlcNAc(b1-6)[Gal(b1-3)]GalNAc
# Outline: as §1
# [18] = molecular target: Neu5Ac(a2-3)Gal(b1-4)GlcNAc(b1-6)[Neu5Ac(a2-3)Gal(b1-3)]GalNAc
# Outline: as §1
# [19] = molecular target: Neu5Ac(a2-3)Gal(b1-4)GlcNAc6S
# Outline: as §1
# [20] = molecular target: Neu5Ac(a2-3)Gal(b1-4)[Fuc(a1-3)]GlcNAc
# Outline: as §1
# [21] = molecular target: Neu5Ac(a2-3)Gal(b1-4)[Fuc(a1-3)]GlcNAc(b1-2)Man
# Outline: as §1
# [22] = molecular target: Neu5Ac(a2-3)Gal(b1-4)[Fuc(a1-3)]GlcNAc(b1-3)Gal
# Outline: as §1
# [23] = molecular target: Neu5Ac(a2-3)Gal(b1-4)[Fuc(a1-3)]GlcNAc(b1-3)Gal(b1-4)GlcNAc
# Outline: as §1
# [24] = molecular target: Neu5Ac(a2-3)Gal(b1-4)[Fuc(a1-3)]GlcNAc(b1-3)Gal(b1-4)[Fuc(a1-3)]GlcNAc(b1-3)Gal(b1-4)[Fuc(a1-3)]GlcNAc
# Outline: as §1
# [25] = molecular target: Neu5Ac(a2-3)Gal(b1-4)[Fuc(a1-3)]GlcNAc(b1-3)GalNAc
# Outline: as §1
# [26] = molecular target: Neu5Ac(a2-3)Gal(b1-4)[Fuc(a1-3)]GlcNAc(b1-6)[Gal(b1-3)]GalNAc
# Outline: as §1
# [27] = molecular target: Neu5Ac(a2-3)Gal(b1-4)[Fuc(a1-3)]GlcNAc(b1-6)[Neu5Ac(a2-3)Gal(b1-3)]GalNAc
# Outline: as §1
# [28] = molecular target: Neu5Ac(a2-3)Gal(b1-4)[Fuc(a1-3)]GlcNAc6S
# Outline: as §1
# [29] = molecular target: Neu5Ac(a2-3)Gal6S(b1-4)GlcNAc
# Outline: as §1
# [30] = molecular target: Neu5Ac(a2-3)Gal6S(b1-4)[Fuc(a1-3)]GlcNAc
# Outline: as §1
# Neu5Ac(a2-3)GalNAc = molecular target: Neu5Ac(a2-3)GalNAc
# Outline: as §1
# [31] = molecular target: Neu5Ac(a2-3)GalNAc(b1-4)GlcNAc
# Outline: as §1
# [32] = molecular target: Neu5Ac(a2-3)[GalNAc(b1-4)]Gal(b1-4)Glc
# Outline: as §1
# [33] = molecular target: Neu5Ac(a2-3)[GalNAc(b1-4)]Gal(b1-4)GlcNAc
# Outline: as §1
# [34] = molecular target: Neu5Ac(a2-3)[GalNAc(b1-4)]Gal(b1-4)GlcNAc(b1-3)GalNAc
# Outline: as §1
# [35] = molecular target: Neu5Ac(a2-3)[Neu5Ac(a2-6)]GalNAc
# Outline: as §1
# Neu5Ac(a2-6)Gal = molecular target: Neu5Ac(a2-6)Gal
# Outline: as §1
binder,measurement,setting,value
PX14375l-pdi-526-25-526 (Parabacteroides distasonis) (protein) DEEPKSTLTDVAYYKTQSQMESNVNYLYRTGAIGSYVDFGSAYIGPFASIQEELTGYFSNSYEGQEIVCRYTRELTRQQNTMQLASKMDKVWDDCYRGINVANGAIKHMPEVPMDQATADRLTAEAKFFRAFNYFYLVKTFGAVPFYTDPYELAENMELPRTETSTIYNQIESDLKDAMNVLPEATFAANGHRITKYVAAMTLTDVYMYQHKYAEAAETVRIVVNSNHKLTTNDDLAMNSAFNKLRSTDDLDEAIYAYEYDNQISPSNWLPTYAFDGDASSNGLFGTYAITQKVHGPNDRYLNIYESNDLRRQPNQFYHWTYTNPKTGKVWNSVGNAACCWYYYDEDALLTTGRGTKDWNVYRYAEALLDAAESIAQSTGVTAEAAGYLAQVKARANMEGKTAAEIASSLQSMGKQAFIEECWTERLRELPLEFKMWDMCVRTGMFPNISETTPGQVTYIPLVGAKNASGATIKESDLLWPLSVNEIQRNPSLTQNEGYSAK,glycan array binding signal (z-score),[1],-0.392
same,glycan array binding signal (z-score),[2],0.151
same,glycan array binding signal (z-score),[3],-0.364
same,glycan array binding signal (z-score),[4],-0.144
same,glycan array binding signal (z-score),[5],-0.252
same,glycan array binding signal (z-score),[6],-0.289
same,glycan array binding signal (z-score),[7],-0.162
same,glycan array binding signal (z-score),[8],-0.296
same,glycan array binding signal (z-score),[9],1.67
same,glycan array binding signal (z-score),[10],-0.387
same,glycan array binding signal (z-score),[11],-0.339
same,glycan array binding signal (z-score),[12],0.041
same,glycan array binding signal (z-score),[13],-0.132
same,glycan array binding signal (z-score),[14],-0.257
same,glycan array binding signal (z-score),[15],-0.205
same,glycan array binding signal (z-score),[16],-0.422
same,glycan array binding signal (z-score),[17],0.031
same,glycan array binding signal (z-score),[18],-0.135
same,glycan array binding signal (z-score),[19],-0.299
same,glycan array binding signal (z-score),[20],-0.14
same,glycan array binding signal (z-score),[21],-0.069
same,glycan array binding signal (z-score),[22],-0.337
same,glycan array binding signal (z-score),[23],0.129
same,glycan array binding signal (z-score),[24],-0.172
same,glycan array binding signal (z-score),[25],0.002
same,glycan array binding signal (z-score),[26],0.593
same,glycan array binding signal (z-score),[27],0.444
same,glycan array binding signal (z-score),[28],-0.095
same,glycan array binding signal (z-score),[29],-0.067
same,glycan array binding signal (z-score),[30],-0.289
same,glycan array binding signal (z-score),Neu5Ac(a2-3)GalNAc,0.09
same,glycan array binding signal (z-score),[31],-0.076
same,glycan array binding signal (z-score),[32],-0.137
same,glycan array binding signal (z-score),[33],-0.307
same,glycan array binding signal (z-score),[34],-0.169
same,glycan array binding signal (z-score),[35],-0.316
same,glycan array binding signal (z-score),Neu5Ac(a2-6)Gal,0.084
